Source: PubChem BioAssay AID588342 (National Center for Advancing Translational Sciences (NCATS), 2011)
Among all 360,000 compounds or so, about 25,000 (6.9%) were called active. The shares of active, inactive and inconclusive entries below differ from those in the screen. Calls follow the shape of the dose curve; as a rule, active = well fitted inhibition curve with a large enough effect; inconclusive = small, poorly fitted or top-dose-only effect; inactive = flat fitted curve, though single readings scatter. Potencies of inconclusive entries are doubtful fits and often do not repeat.

Molecular target: Luciferin 4-monooxygenase (Photinus pyralis) (UniProt P08659)
Sequence of UniProt P08659 (P08659 whole entry, looked up): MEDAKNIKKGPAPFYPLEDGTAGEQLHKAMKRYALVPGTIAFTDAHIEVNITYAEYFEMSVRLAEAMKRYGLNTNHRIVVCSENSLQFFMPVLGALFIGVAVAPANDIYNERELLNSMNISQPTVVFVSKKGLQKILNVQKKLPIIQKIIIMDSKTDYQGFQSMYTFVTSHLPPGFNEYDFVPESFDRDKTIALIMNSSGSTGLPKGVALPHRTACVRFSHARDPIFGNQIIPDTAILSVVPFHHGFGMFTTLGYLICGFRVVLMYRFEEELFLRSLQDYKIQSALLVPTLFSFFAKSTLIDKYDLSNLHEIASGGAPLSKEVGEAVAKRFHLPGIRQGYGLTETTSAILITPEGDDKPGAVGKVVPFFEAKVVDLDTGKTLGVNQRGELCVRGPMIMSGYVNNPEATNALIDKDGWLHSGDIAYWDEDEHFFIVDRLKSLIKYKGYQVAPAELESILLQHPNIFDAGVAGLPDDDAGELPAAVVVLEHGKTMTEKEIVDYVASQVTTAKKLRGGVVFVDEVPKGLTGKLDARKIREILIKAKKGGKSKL
Experiment: qHTS profiling assay for firefly luciferase inhibitor/activator using purifed enzyme and Km concentrations of substrates (counterscreen for miR-21 project); also: nearly all actives have a fitted effect of over 55% in size;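 as to activity change, negative = inhibition: plate controls were vehicle for no effect and reference inhibitor for full effect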
Settings: purified FLuc, luminescence inhibition; series mostly up to 57.5 µM; activity change, negative = inhibition: at the top concentration
Method in brief: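 Biochemical qHTS of compounds, final roughly 60 µM downward over six points, against 10 nM purified firefly luciferase using Km concentrations of substrates (10 uM D-luciferin, 10 uM ATP) in Tris acetate pH 7.5 buffer; luminescence output.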
Potency is read from the fitted curve at half-maximal effect; tags tell the direction and shape of the fitted curve.

| Compound | Potency | activity change, negative = inhibition |
| --- | --- | --- |
| O=C(Nc1ccon1)c1ccc2c(c1)OCO2 | inconclusive: 26.9 µM [inhibitor, single point] |  |
| NC(=O)c1ccccc1NC(=O)N1CCOCC1 |  | inactive: -0.458% |
| C=CCc1ccc(OCCCOc2ccc(C(=O)O)cc2)c(OC)c1 | active: 10.7 µM |  |
| C#CCNC(=O)C1=C[C@@H](c2ccc(C(F)(F)F)cc2)C[C@@H](OCCCCO)O1 | inconclusive: 42.6 µM [inhibitor, partial curve, poor fit] |  |
| CC(=O)Nc1ccc(NC(=O)/C=C/c2ccc3c(c2)OCO3)cc1 | inconclusive: 7.57 µM [inhibitor, full curve] |  |
| CC(NC(=O)c1ccc(NC(=O)CC2SC(N3CCCC3)=NC2=O)cc1)c1ccccc1 (stereo unspecified) |  | inactive: -1.35% |
| O=C1CCC(C(=O)N2CCCO2)CN1Cc1cccc(C(F)(F)F)c1 (stereo unspecified) | inconclusive: 30.1 µM [inhibitor, single point] |  |
| Fc1ccccc1CSc1ncnc2c1oc1ccccc12 | inconclusive: 23.9 µM [inhibitor, single point] |  |
| [O-]/[N+](=C/c1ccccc1)c1ccccc1 | inconclusive: 16.9 µM [inhibitor, single point] |  |
| O=c1[nH]c(SCC2CCCCO2)nc2ccccc12 (stereo unspecified) | inconclusive: 16.9 µM [inhibitor, partial curve] |  |
| N#Cc1ccsc1NC(=O)COC(=O)CCCSc1nc2ccccc2s1 | inconclusive: 26.9 µM [inhibitor, single point] |  |
| O=C(NNC(=O)c1cccs1)c1ccc(Cl)cc1 | inconclusive: 16.9 µM [inhibitor, partial curve] |  |
| CC(=O)Nc1ccc(NC(=O)c2cccc(C(=O)OC(C)C)n2)cc1 | inconclusive: 19 µM [inhibitor, partial curve] |  |
| CN(C)S(=O)(=O)c1ccc(C(=O)Nc2nc3ccccc3[nH]2)cc1 | inconclusive: 8.49 µM [inhibitor, full curve] |  |
| O=C(O)CSc1nc(-c2ccc(Cl)cc2)nc2c1oc1ccccc12 | inconclusive: 37.9 µM [inhibitor, partial curve, poor fit] |  |
| O=C(Nc1cccc(O)c1)c1ccc(C(F)(F)F)cc1 | active: 12 µM |  |
| Cc1ccc(-c2ccc(/C=C3\SC(N4CCOCC4)=NC3=O)o2)cc1 | inconclusive: 21.3 µM [inhibitor, partial curve] |  |
| O=C(NCCc1csc(-c2ccc(C(F)(F)F)cc2)n1)C(=O)Nc1ccc(F)c(Cl)c1 |  | inactive: 0.42% |
| Cc1ccc(C(=O)N2CC(C)OC(C)C2)cc1[N+](=O)[O-] (stereo unspecified) |  | inactive: -0.501% |
| Fc1cc2nccnc2cc1N1CCSCC1 |  | inactive: -1.64% |
| CC(C)(C)c1cc(NC(=O)c2ccc(OC3CCCC3)cc2)no1 | inconclusive: 33.8 µM [inhibitor, partial curve, poor fit] |  |
| Cc1nn(-c2nc3ccccc3s2)c(N)c1Sc1ccc(F)cc1 | inconclusive: 1.69 µM [inhibitor, full curve] |  |
| Cc1cc(C(=O)Nc2cccc(NC(=O)c3ccco3)c2)ccc1[N+](=O)[O-] | active: 19 µM |  |
| Oc1c(C(c2ccc(F)cc2)N2CCN(Cc3ccccc3)CC2)sc2nc(-c3ccco3)nn12 (stereo unspecified) | inconclusive: 26.9 µM [inhibitor, partial curve, poor fit] |  |

| Compound | Potency | activity change, negative = inhibition |
| --- | --- | --- |
| Cc1cc(N2CCCC2)ccc1/C=N/n1cnnc1 | inconclusive: 23.9 µM [inhibitor, partial curve] |  |
| C=CCSc1nnc(-c2ccccc2N=Cc2c(C)[nH]n(-c3ccccc3)c2=O)c(=O)[nH]1 | inconclusive: 37.9 µM [inhibitor, single point] |  |
| CCCCNC(=O)CCCN1C(=O)c2ccccc2Sc2ncccc21 |  | inactive: -0.236% |
| Fc1ccccc1NC(=S)Nc1cccc2cnccc12 | inconclusive: 19 µM [inhibitor, partial curve, poor fit] |  |
| CC(C)CCN1C(=O)c2ccc(C(=O)Nc3ccc(Br)cc3C(=O)O)cc2C1=O | inconclusive: 37.9 µM [inhibitor, partial curve, poor fit] |  |
| CC(C)(C)OC(=O)n1cc(C(=O)c2ccccc2O)cn1 | inconclusive: 19 µM [inhibitor, partial curve] |  |
| CCN1CCN(c2ncc3c(n2)CCN(Cc2ccccc2C)C3)CC1 |  | inactive: -0.826% |
| CNC(=O)C1=C(C)n2c(nc3ccccc32)NC1c1ccc(OC)cc1 (stereo unspecified) |  | inactive: -2.64% |
| COc1ccc(N(C)C(=O)CCC(=O)Nc2ccc3nc(N4CCOCC4)cc(C)c3c2)c(OC)c1 | inconclusive: 37.9 µM [inhibitor, partial curve, poor fit] |  |
| Cc1cc(C(=O)NC2CC(C)(C)Cc3c2cnn3-c2ccc(F)cc2)no1 (stereo unspecified) | inconclusive: 30.1 µM [inhibitor, partial curve, poor fit] |  |
| COc1ccc(C)c2sc(N(CCN(C)C)C(=O)c3cccc(N4C(=O)CCC4=O)c3)nc12 | inconclusive: 37.9 µM [inhibitor, partial curve, poor fit] |  |
| Cc1ccc(C(=O)Nc2nc(=O)n(C(=O)c3ccccc3C)s2)cc1 | active: 15.1 µM |  |
| Cc1ccnc(NC(=S)NC(=O)/C=C/c2ccc(Cl)cc2)c1 | inconclusive: 37.9 µM [inhibitor, partial curve, poor fit] |  |
| COC(=O)c1sc(NC(=O)CSc2nnnn2C)nc1C | active: 16.9 µM |  |
| C=CCn1c(CC(=O)OC)csc1=Nc1ccc(C(C)=O)cc1 | inconclusive: 23.9 µM [inhibitor, partial curve] |  |
| Cc1ccc(Cl)cc1-n1nnc(-c2nc(-c3ccc4c(c3)OCO4)no2)c1C | inconclusive: 4.78 µM [inhibitor, full curve] |  |
| O=C1C2C3C=CC(CC3)C2C(=O)N1c1ccc2c(c1)OCO2 (stereo unspecified) | active: 16.9 µM |  |
| CC(C)(C)c1ccc(OCCC(=O)OCC(=O)NC2CC2)cc1 | active: 15.1 µM |  |
| CCN1C(=O)[C@@H]2[C@@H](c3ccc(-c4ccc(F)cc4)c(OC)c3)N3CCCC[C@@]3(C(=O)OC)[C@@H]2C1=O |  | inactive: 0.109% |
| O=C1N=C(N2CCOCC2)S/C1=C/c1ccc(-c2ccc(F)cc2)o1 | inconclusive: 19 µM [inhibitor, partial curve] |  |
| c1cn2cc(-c3ccc4c(c3)OCO4)nc2s1 | active: 1.9 µM |  |
| COc1ccc(-c2cc(C(F)(F)F)c(C#N)c(=O)[nH]2)cc1 | inconclusive: 37.9 µM [inhibitor, single point] |  |
| COc1ccc(-c2nnc(SC(C)C(=O)Nc3ccc4c(c3)OCCO4)o2)cc1 (stereo unspecified) | inconclusive: 13.5 µM [inhibitor, partial curve, poor fit] |  |
| O=C(c1cnn(-c2ccccc2)c1)c1ccccc1O | active: 2.39 µM |  |

| Compound | Potency | activity change, negative = inhibition |
| --- | --- | --- |
| O=C(Nc1ccccc1N1CCOCC1)c1ccc(N2CCOCC2)c([N+](=O)[O-])c1 | inconclusive: 37.9 µM [inhibitor, single point] |  |
| Cc1nnc(SCC(=O)N2CCN(c3ccccc3F)CC2)n1C1CC1 |  | inactive: 3.24% |
| CCCCC(=O)Nc1ccc(Br)cc1C(=O)O | inconclusive: 37.9 µM [inhibitor, partial curve, poor fit] |  |
| CC1=NOC(=O)/C1=C/c1ccc(O)c(Br)c1 | inconclusive: 30.1 µM [inhibitor, partial curve, poor fit] |  |
| COc1cc(C(c2c(C)[nH][nH]c2=O)c2c(C)[nH][nH]c2=O)ccc1OC(=O)c1ccccc1OC | inconclusive: 33.8 µM [inhibitor, partial curve, poor fit] |  |
| COC(=O)CC1Oc2ccccc2-n2cc(-c3ccc(F)cc3)nc21 (stereo unspecified) |  | inactive: -1.66% |
| CCOc1ccc(Nc2nc(-c3cccnc3)cs2)cc1 | inconclusive: 1.35 µM [inhibitor, full curve] |  |
| Cc1ccc(OCCCC(=O)Nc2ccc3c(c2)OCCO3)cc1 | inconclusive: 37.9 µM [inhibitor, partial curve, poor fit] |  |
| N#Cc1ccc(OCC(=O)Nc2cccc(S(=O)(=O)NC3=NCCCCC3)c2)cc1 | inconclusive: 30.1 µM [inhibitor, partial curve, poor fit] |  |
| NS(=O)(=O)c1ccc(-n2nncc2-c2ccco2)cc1 |  | inactive: 1.03% |
| CCOc1ccc(NC(=S)N2CCN(CCN3C(=O)c4cccc5cccc(c45)C3=O)CC2)cc1 |  | inactive: -0.647% |
| CC(/C=C/c1ccc2c(c1)OCO2)=N/NC(=O)c1cccnc1 | inconclusive: 33.8 µM [inhibitor, partial curve, poor fit] |  |
| COc1ccccc1-c1nnc(NC(C)=O)s1 | active: 6.75 µM |  |
| Cc1ccc(N2C(=O)C3C4C=CC(CC4)C3C2=O)cc1[N+](=O)[O-] (stereo unspecified) | inconclusive: 21.3 µM [inhibitor, single point] |  |
| COc1ccc(-c2nc(C#N)c(NCCCN3CCOCC3)o2)cc1 | inconclusive: 12 µM [inhibitor, partial curve, poor fit] |  |
| C/C(CC(=O)NC1CCCC1)=N\NC(=O)c1ccc([N+](=O)[O-])c(Cl)c1 |  | inactive: -1.33% |
| O=C(Nc1cc(Cl)ccc1N1CCCC1)C1=COCCO1 |  | inactive: 3.25% |
| COc1ccc2c(c1)c1c(c(=O)n(CCc3ccccc3)c(=O)n1Cc1cccc(F)c1)n2C |  | inactive: -0.137% |
| COc1ccc(Cn2c(CO)cnc2SCc2ccc(C)cc2)cc1 | active: 16.9 µM |  |
| c1ccn2cc(C34CC5CC(CC(C5)C3)C4)nc2c1 | inconclusive: 37.9 µM [inhibitor, single point] |  |
| Cc1cccc(NC(=O)CSC2=Nc3ccccc3C3=NC(CCC(=O)NCc4ccco4)C(=O)N23)c1 (stereo unspecified) |  | inactive: -5.97% |
| COC(=O)c1sccc1S(=O)(=O)N(CC(=O)Nc1cccc(C)c1C)c1ccc(C)c(C)c1 |  | inactive: 2.2% |
| C/C(=N/N=C(/N)SCc1ccccc1)C(C)(C)C | inconclusive: 37.9 µM [inhibitor, partial curve, poor fit] |  |
